Reference: a collection of fitness landscapes (doi:10.1016/j.celrep.2020.107928)
Whole data set: some 81,000 sequences, median “one-hybrid fitness for binding parS DNA” near -0.17, cut for the highest 2% near 0.51. Some of the results follow.

B1: Caulobacter ParB omega fusion; a variant is named by its letters at X, in order, B8GW30 (parent)
chain: MESVVVGEPGMSEGRRGLGRGLSALLGEVDAAPAQAPGEQLGGSREAPIEILQRNPDQPRRTFREEDLEDLSNSIREKGVLQPILVRPSPDTAGEYQIVAGERAWRAAQRAGLKTVPIMVRELDDLAVLEIGIIENVQRADLNVLEEALSYKVLMEKFERTQENIAQTIGKSXSHVANXMRLLXLPDEVQSYLVSGELTAXHARAIAAAADPVALAKQIIEGGLSVRETEALARKAPNLSAGKSKGGRPPRVKDTDTQALESDLSSVLGLDVSIDHRGSTGTLTITYATLEQLDDLCNRLTRGI

Variants of: B1
Test: one-hybrid fitness for binding parS DNA (scaled: cognate 1, non-cognate 0); higher = stronger binding
Conditions: with parS DNA site
Procedure, shortened: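 Values were rescaled so that cognate is 1 and non-cognate is 0. Each is a fitness, the log change in a variant's read ratio to wild type from Illumina reads of plasmids before and after selection, with three replicate libraries pooled and variants under 10 reads dropped. Selection of the Caulobacter ParB libraries, four specificity codons randomised, used E. coli USO with a HIS3 reporter, site 19 bp from the promoter, on M9-minus-histidine with 0.1 mM IPTG and 5 mM 3-AT for 48 hours at 37°C.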

Variant | one-hybrid fitness for binding parS DNA
NPDG | ≤ 0.2
QEHT | ≤ 0.2
GSTV | ≤ 0.2
RNFE | ≤ 0.2
VPRR | ≤ 0.2
IVTF | ≤ 0.2
MNLD | ≤ 0.2
QHRY | ≤ 0.2
AHQE | ≤ 0.2
FYDT | ≤ 0.2
QSSM | ≤ 0.2
HKKK | ≤ 0.2
HTCK | ≤ 0.2
DPFC | 0.246
GSQT | ≤ 0.2
DKTK | ≤ 0.2
SNVI | ≤ 0.2
YRSA | ≤ 0.2
QMCF | ≤ 0.2
SSSK | ≤ 0.2
RRDR | ≤ 0.2
CVVC | ≤ 0.2
GYRM | ≤ 0.2
KEDG | ≤ 0.2
RFME | ≤ 0.2

Variant | one-hybrid fitness for binding parS DNA
TYHN | ≤ 0.2
HPDI | ≤ 0.2
DYNW | ≤ 0.2
DTRS | ≤ 0.2
TMNR | ≤ 0.2
CVCL | ≤ 0.2
LRRF | ≤ 0.2
QQTR | ≤ 0.2
SLMH | ≤ 0.2
TWPF | ≤ 0.2
NDTR | ≤ 0.2
KVWC | ≤ 0.2
CARY | ≤ 0.2
TTLR | ≤ 0.2
WVRG | ≤ 0.2
QHAT | ≤ 0.2
SNVD | ≤ 0.2
FKSA | ≤ 0.2
TIMT | ≤ 0.2
YFTD | ≤ 0.2
WGFC | ≤ 0.2
PELS | ≤ 0.2
GKNT | ≤ 0.2
QMAS | ≤ 0.2
VHVL | ≤ 0.2

Variant | one-hybrid fitness for binding parS DNA
QQLW | ≤ 0.2
GLKC | ≤ 0.2
HAEG | ≤ 0.2
GMRF | ≤ 0.2
PSHN | ≤ 0.2
CKLG | ≤ 0.2
FPCG | ≤ 0.2
GIDT | ≤ 0.2
PFPD | ≤ 0.2
SAML | ≤ 0.2
NRIA | ≤ 0.2
RDND | ≤ 0.2
NTIR | ≤ 0.2
STVD | ≤ 0.2
RDAT | ≤ 0.2
CTCR | ≤ 0.2
TNDG | ≤ 0.2
TWCT | ≤ 0.2
QPEI | ≤ 0.2
PATK | ≤ 0.2
IKPG | ≤ 0.2
PAKA | ≤ 0.2
LSEV | ≤ 0.2
KDHA | ≤ 0.2
RNSS | 0.967

Variant | one-hybrid fitness for binding parS DNA
SLRH | ≤ 0.2
ASEP | ≤ 0.2
DHDF | ≤ 0.2
PYGM | ≤ 0.2
YFAL | ≤ 0.2
RMGM | 0.315
CGKC | ≤ 0.2
NNWT | ≤ 0.2
RDIH | ≤ 0.2
PLKQ | ≤ 0.2
RRGS | 0.639
MLQM | ≤ 0.2
GQGS | ≤ 0.2
QQLF | ≤ 0.2
DGTW | ≤ 0.2
PQVQ | ≤ 0.2
RPIT | ≤ 0.2
STRM | ≤ 0.2
QMVN | ≤ 0.2
VMTM | ≤ 0.2
LANF | ≤ 0.2
KPWR | ≤ 0.2
TDLE | ≤ 0.2
EQSC | ≤ 0.2
CMYR | ≤ 0.2

Variant | one-hybrid fitness for binding parS DNA
HSSH | ≤ 0.2
LWVS | ≤ 0.2
VVKF | ≤ 0.2
CIRR | ≤ 0.2
PYIV | ≤ 0.2
ACPV | ≤ 0.2
KRPC | ≤ 0.2
TEVA | ≤ 0.2
WSGT | ≤ 0.2
ATNV | ≤ 0.2
GHAF | ≤ 0.2
GMPR | ≤ 0.2
GNRY | ≤ 0.2
SYWG | ≤ 0.2
RMVT | 0.875
RCIC | 0.906
PKTF | ≤ 0.2
AYAW | ≤ 0.2
TCVG | ≤ 0.2
PARP | ≤ 0.2
YRAA | ≤ 0.2
REIP | ≤ 0.2
GPKH | ≤ 0.2
YGRD | ≤ 0.2
RDVG | ≤ 0.2

Variant | one-hybrid fitness for binding parS DNA
IDDD | ≤ 0.2
KNGM | ≤ 0.2
RPET | ≤ 0.2
PRHQ | ≤ 0.2
TTFL | ≤ 0.2
RAYL | ≤ 0.2
TNGT | ≤ 0.2
NLMT | ≤ 0.2
RRHP | ≤ 0.2
HHYW | ≤ 0.2
KQEC | ≤ 0.2
GFYR | ≤ 0.2
KDYT | ≤ 0.2
ELHV | ≤ 0.2
KRSF | ≤ 0.2
LNLK | ≤ 0.2
QNHT | ≤ 0.2
SDEC | ≤ 0.2
LLSF | ≤ 0.2
GTIG | ≤ 0.2
PKLW | ≤ 0.2
QMIV | ≤ 0.2
IPPG | ≤ 0.2
GPTY | ≤ 0.2
VVSS | ≤ 0.2

Variant | one-hybrid fitness for binding parS DNA
YVTY | ≤ 0.2
YIDA | ≤ 0.2
ALKF | ≤ 0.2
HSPD | ≤ 0.2
GWSS | ≤ 0.2
QRNH | ≤ 0.2
APRI | ≤ 0.2
CICK | ≤ 0.2
PTSS | ≤ 0.2
RIHF | ≤ 0.2
QVAI | ≤ 0.2
GSMP | ≤ 0.2
QNHD | ≤ 0.2
EYRG | ≤ 0.2
HLAD | ≤ 0.2
QAYH | ≤ 0.2
RWQE | ≤ 0.2
RRRT | 0.597
RTTM | 0.316
EPEC | ≤ 0.2
SFEC | ≤ 0.2
HVCP | ≤ 0.2
KWYG | ≤ 0.2
TKNF | ≤ 0.2
GSWR | ≤ 0.2

Variant | one-hybrid fitness for binding parS DNA
MYLC | ≤ 0.2
MTRP | ≤ 0.2
KYTQ | ≤ 0.2
KGPD | ≤ 0.2
SSVR | ≤ 0.2
IAHL | ≤ 0.2
VANW | ≤ 0.2
VLVG | ≤ 0.2
RVEC | 0.805
RWNT | 0.682
RWIY | ≤ 0.2
FPGE | ≤ 0.2
AGNA | ≤ 0.2
CFSF | ≤ 0.2
WDRA | ≤ 0.2
WFKR | ≤ 0.2
RSNR | ≤ 0.2
APTW | ≤ 0.2
VSYG | ≤ 0.2
CNTS | ≤ 0.2
